Laboratory results taken from the supplement of paper PMC11417369.
± gives the standard deviation of the averaged measurements. Some of the results follow.

System: PfAP2-I AP2 domain 3 (GST-tagged)
Assay: gcPBM binding intensity (ln(normalized median fluorescence intensity)); higher = stronger DNA binding
Outline: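 GST-fused DNA-binding domains of P. falciparum, expressed in E. coli, were applied at about 25 μg on average for 1 h to an Agilent 4 × 180k array of primer-extended double-stranded 36-bp intergenic genomic probes and negative controls. Binding intensity is the highest Masliner-normalised natural-log median intensity across replicate spots of either probe orientation, measured with Alexa488 anti-GST antibody and a 488 nm scan.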

Sequence | gcPBM binding intensity (ln)
TAAAACAACAAAGAAAATGAAAAAGTAAAAACATAT [CACACA_negctrl_site1049] | 7.88 ± 0.75
ACTGTAAAAGGATTTACACACATATTTACATTTACA [CACACA_site519] | 7.79 ± 0.7
TACCAATGCATAACGGTGCAAAAAAATAAGGAATAA | 10.47 ± 0.064
ATGCATATAACTACGTGTACAAATATACACAAATAC [XGTACX_site8811] | 8.27 ± 0.57
TTTCCTTATTAAAACACACAAATACATTATTTAATC [CACACA_site7080] | 7.65 ± 0.4
ACCCATAAAAAGGATACACACACACCCACCCATATA [CACACA_site8205] | 8.28 ± 0.8
ATATATATATTTGTATGTACATATATATATTCGTAT [XGTACX_site1640] | 8.79 ± 0.13
AATCCTTACGGACACACACACACGAATAAATAAAAA [CACACA_site4422] | 8.21 ± 0.26
GAGTATTCAAGTATTAGTACATATTATATAATAAAT [XGTACX_site7630] | 7.78 ± 0.18
TAAAATAAAAATTAAAGTACATATGTATATATATAT [XGTACX_site3984] | 9.32 ± 0.34
TACAAAATGGGGAACACACACATATATAAATAAATA [CACACA_site7751] | 7.97 ± 0.48
ATAATTATTTTAGAAACACACAAATTAGAAAAAACA [CACACA_site3636] | 7.83 ± 0.75
ACATTAAAATATGATTGTACATTTTATTATATTATA [XGTACX_site912] | 7.67 ± 0.61
ACAACACTATATTACACATGCATTAAGAGAGTGAAC [TGCATGCA_site124] | 8.36 ± 0.55
ATTCAAATATTAAAAAGTACAAAAAAAAAACAAAAA [XGTACX_site1174] | 7.92 ± 0.38
ATATAATTATTGATATGTACATATTTGTTCTAGTTT [XGTACX_site3012] | 7.71 ± 0.64
CTATCATATTTATGCACACAAAAATAATTAATTCGT [CACACA_site2614] | 9.63 ± 0.35
ACCTGTTCATATGATCGTACACGTCAGTTTATATGA [XGTACX_site3869] | 8.21 ± 0.51
TATTTTGAGAATAAATGTACGAATTTTATATTTAAA [XGTACX_site1336] | 7.44 ± 0.27
TTACTTAAATATAAGTGTCCTCAAAAAAAAAAAAAA [XGTACX_site460] | 8.1 ± 0.54
ATGTATGTTTTTTTTTTATTGTTCAAAAAGTTGAAG [CACACA_negctrl_site1276] | 7.86 ± 0.59
ATTTTTTATATTAATTGTACATTGTATATATATATA [XGTACX_site8702] | 9.29 ± 0.4
AATATAAGTTTATTAGTGCACAGATAAATATATATT [GTGCAC_site9784] | 11.4 ± 0.23

Sequence | gcPBM binding intensity (ln)
TTTTTATAAAAATTATTAAAAAAATTATTTATAGCT [CACACA_negctrl_site265] | 7.29 ± 0.49
TAGCGCATAAAAAAAAAAAAATATATACTAATAAAT [GTGCAC_negctrl_site276] | 7.58 ± 0.37
AAATATATTATTATCTTATCAATTAAAAGAATAAAC [CACACA_negctrl_site779] | 7.55 ± 0.59
TTTTTTTTCAATCTCTATATATTAAGGTTTATATTT [XGTACX_negctrl_site397] | 7.46 ± 0.53
CGTGTGTCCCCCTTAATCATCCAATCGTTCATTTTG [CACACA_negctrl_site1008] | 8.38 ± 0.28
TATATAATGGTAAAAACACACAAATATGAAGATGTT [CACACA_site722] | 7.72 ± 0.66
AAATATAAAAGTATATGTACATATATATATATATAT [XGTACX_site7446] | 9.4 ± 0.47
AATAAATAGATATATACACACATATATCTATAATAT [CACACA_site6557] | 7.64 ± 0.43
CATATTCCCCCCCACACACACACACCCATACATACC [CACACA_site2303] | 11.2 ± 0.44
TCTTCATTTTTATGTGCATGTAAAATTTTTTTTTTT [TGCATGCA_site963] | 8.59 ± 0.74
GACAATAAAAAGAAAAGTACATATATAAATTAACCA [XGTACX_site7858] | 7.69 ± 0.51
AGAGGATCATAGTTATGTACACATATTTAACATAAA [XGTACX_site7232] | 7.6 ± 0.44
TTTTTTTCTAATTATGCACACATATCAAAATATTCA [CACACA_site8886] | 10.1 ± 0.31
ATATTTATTATATAATGTACAAAAAAAAAAAAAAAA [XGTACX_site629] | 8.01 ± 0.66
AAACGTAACATATATATATATATATATAAGATATAT [CACACA_negctrl_site126] | 8.36 ± 0.38
ATAAATCTACACCGCACACAAAAACAACAAATATTA [CACACA_site5396] | 8.38 ± 0.2
AATGAATATATATAAATATATATATATATATATATA [CACACA_negctrl_site1494] | 9.22 ± 0.55
ATATTTGTATAAATTGCACACTTTATTTTTTTTAAG [CACACA_site1558] | 8.87 ± 0.27
ATGTTATTACATAATTGTACATTTTGAGCAATTAAG [XGTACX_site4640] | 7.68 ± 0.33
TATATAATATTCTACACACCAACAACAAACATATAT [CACACA_site567] | 8.07 ± 0.43
ATATATATATTTATATGTACATAATATAAAATTTCT [XGTACX_site3720] | 8.8 ± 0.071
ATATTCTGATTTTAGATGCACTTCGTTAACAAAATA [GTGCAC_site9958] | 9.195 ± 0.064
